Read counts are not given, so values of variants with three or more changes are uncertain.
B1: LINE1-mini (parent)
chain: GGCAGAGCUCAACACAGCGUGGCAAAGUGGCUGUGGCUAGACUGCC

Variants of: B1
Experiment: self-cleavage, relative activity (ratio to wild type); higher = more cleavage; in vitro, sequencing; the parent is a self-cleaving ribozyme

Variant	self-cleavage
G2A A6G G21C	0.15
G2A A25U A26G U34C	0.17
G1U G30C U32C	0.13
G2A A25C G40U A41C	0.17
G1U U20G G35A C42A	0.09
G2A A6C A26G	0.16
G2A A25G G36A U38C	0.06
G2A C8U U20C C37A	0.03
G2A C3U A12G	0.22
G2A A6U U9G C18G C31U G36C	0.02
G2A A4U G21C U32C G33A C37A	0.18
G2A A6C C8U A16G	0.06
G2A A6G U28C	0.1
G2A C3G G21A C46U	1.56
G2A A12U G22U	0.2
G1U G35A G36A U38G A39U	0.1
G2A A16U U28C	0.59
G2A A14G G17U U43C	0.11
G1U G35A C37A	0.06
G2A A16C U34A	0.07
G2A C3G C46G	0.15

Variant	self-cleavage
G2A A11G U28C G35U	0.04
G1U U9A C18G G36U A39G	0
G2A A4C G17C A39C	0.03
G2A A4C C42A U43G	0.02
G1U G33U G44U	0.05
G1U G27C U34A C37U	0.01
G1U G33U U38C A41C U43A	0.02
G2A C3U C10A G19C U38A	0.03
G2A A16C G17A U38A A39G	0.03
G1U U9G U34A	0.01
G2A C3U G33U G44U	0.25
G2A C3U G7A C10U C13G	0.44
G2A A4C C10U U34C C37U	0.04
G2A C3U U32G	0.26
G1U U32G U34C C46A	0.01
G1U U32A C37U	0.05
G2A A14C C31A	0.06
G2A A6G C46U	2.12
G1U G27A U43A	0.05
G2A C8U C18A C37G C42G	0.07
G2A A6U C10G G30U G33U G36U C42A	0.01

Variant	self-cleavage
G2A C3U G33A U38A C46U	0.4
G2A A16G C18A G22C A25C G29U G33U U43C	0.06
G1U U9A G22A A25G C46A	0.05
G2A A12U C15A G35C C46U	0.06
G2A A4C G33U	0.07
G2A A4C G33A	0.09
G2A C8U U43A	0.18
G1U G35U A41G	0.12
G2A A14C G22A G35U	0.1
G2A A4C G5A C15U A16U G17U G27U G29A U32G	0.2
G1U G30C G40U	0.07
G2A A16U G22A U28C G29C	0.28
G1U U28G A39G C42A C45G	0.01
G2A C3U A16U C18U G27C G35C	0.62
G2A A4C G30A	0.06
G2A A6C G27A	0.23
G2A A4U C10A U43C C46U	0.1
G1U G29U G35U	0.06
G2A A24C U28C	0.7
G2A A14C G33U A39C U43C	0
G2A C3G A11C	0.11

Variant	self-cleavage
G2A C3A A4G A6U	0.15
G2A A4G C13G G40U C46U	0.08
G2A C10A A14U C18A	0.04
G2A A6U A25U C37U	0.18
G1U U9C A16C C23G A25G	0
G2A C3A G5C C10U A11C C23U G36A	0.06
G2A A24U G40U A41C G44U	0.16
G1U U9A C31U G44A	0.02
G2A C3G C18U U28G	0.16
G2A C3A C10A C37A	0.04
G2A A11G A16G A39C C45A	0
G2A C8U U32A C37U	0.29
G2A A25G U38A	0.15
G2A A25G C46U	0.18
G1U U34C U43A	0.07
G1U U34C U43G	0
G2A A12U C45U	0.62
G2A A12U C15G C31U	0.07
G2A C3A A25U U32G G35A A39G	0.64
G1U U9A G19C U28C G29A C31A G44U	0

Reference: the RNAGym collection of RNA variant scans (doi:10.7554/elife.90254)
